# Source: the supplement of paper PMC10338343
# ± gives the standard deviation. Only a part is listed here, and it is no random draw.
# Tested on: MIWI (PIWIL1) piRISC loaded with L1MC piRNA (30 nt)
# Experiment: pre-steady-state target cleavage rate (min^-1); MIWI and MILI are mouse PIWI proteins and EfPiwi is from a freshwater sponge; tags in brackets are library labels; higher = faster piRNA-guided slicing of the target
# Conditions: guide: L1MC piRNA 5'p-UAACUAAAUACUAUGCAAGCUGUAGGUCCU; auxiliary factor: 500 nM mouse GTSF1
# Procedure: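 Cleave-'n-Seq: a library of target RNAs (target site embedded in constant flanks, ACAGCATTCCGCGTTAGTGATATCCG... 5' flank; DNA-blocked outside the site) at 0.1 nM was incubated with 1 nM active mouse MILI or MIWI piRISC (synthetic 5'-monophosphorylated piRNA guide) with or without 500 nM mouse GTSF1 at 33 °C for 1 min to 16 h. Uncleaved targets were sequenced and normalised to non-target controls, and the pooled three trials were fitted to a burst-and-steady-state model to give the pre-steady-state cleavage rate (min^-1; k3 is constrained to at most 1e-4). Sequence is the target site only; target names encode pairing extent (gX:gY) and contiguous / 1-mismatch / 2-mismatch / bulge geometry. Fits with R² ≤ 0 are excluded.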
row,Sequence,pre-steady-state target cleavage rate
1,UCCACCUACAGCUAGCAUAGAAUUUAGUUA,0.34 ± 0.033
2,UCCUGGAUCAGCUAGGAUAGUAUUUAGUUA,0.414 ± 0.043
3,UCCACCUACAGCUUCCUUAGUAUUUAGUUA,0.343 ± 0.043
4,UGGACCUUACAGCUUGCAUAGUAUUUAGUUA,1.58 ± 0.095
5,UCCUGGUACAGGUUGCAUAGUAUUAAGUUA,0.638 ± 0.12
6,UCGACCUACAGCUUGGUUAGUAUUUAGAAA,0.224 ± 0.04
7,UCCUCCUAGUCCUUGCAUAGUAUUUAGUAA,0.235 ± 0.03
8,UCGACCUACAGCUUGCAUAUAUUUAGUUA,0.489 ± 0.044
9,UCCUGGAACAGGUUGCAUAGUAUUUAGUUA,1.07 ± 0.052
10,UCCUGGUACAGGUUGCAUAGUAUUUAGAUA,0.467 ± 0.086
11,UCCUGCUACAGCUAGCAUAGUUUUUAGUUA,0.362 ± 0.031
12,UCCUGGAUCUGCUUGCAUAGUUUUUAGUUA,0.103 ± 0.015
13,UCCUCCUACAGCUUAGCAUAGUAUUUAGUUA,1.31 ± 0.054
14,UCCUCCUACAGCUUGCAUAGUAUUAUCUUA,0.256 ± 0.037
15,UCCACGUACAGCUUGCAUAGUAUUUACUUA,0.261 ± 0.027
16,UCCAGCUACAGCUUGCAUUGUAUUUAGUUA,0.899 ± 0.042
17,UCCUGGUACAGCUCGCAUAGUAUUUAGUUA,0.768 ± 0.043
18,UGGACCUACUGCUUGCAUAGUUUUUAGUUA,0.302 ± 0.018
19,UCCUCCUACAAGCUUGCAUAGUAUUUAGUUA,0.941 ± 0.033
20,UCCUCCUUCAGCUUGCAAAGUAUUUAGUUA,1.16 ± 0.041
21,UCCUGGAUCUGGUUGCAUAGUAUUUAGUUA,0.199 ± 0.018

# Same assay, conditions: guide: L1MC piRNA 5'p-UAACUAAAUACUAUGCAAGCUGUAGGUCCU; auxiliary factor: none (no GTSF1)
row,Sequence,pre-steady-state target cleavage rate
1,UCCACCUACAGCUAGCAUAGAAUUUAGUUA,0.00696 ± 0.0026
2,UCCUGGAUCAGCUAGGAUAGUAUUUAGUUA,0.00285 ± 0.0027
3,UCCACCUACAGCUUCCUUAGUAUUUAGUUA,0.00162 ± 0.0016
4,UGGACCUUACAGCUUGCAUAGUAUUUAGUUA,0.0853 ± 0.016
5,UCCUGGUACAGGUUGCAUAGUAUUAAGUUA,0.00789 ± 0.0027
6,UCCUCCUAGUCCUUGCAUAGUAUUUAGUAA,0.00608 ± 0.0013
7,UCCUGGAACAGGUUGCAUAGUAUUUAGUUA,0.0411 ± 0.0088
8,UCCUGGUACAGGUUGCAUAGUAUUUAGAUA,0.00768 ± 0.0027
9,UCCUGCUACAGCUAGCAUAGUUUUUAGUUA,0.0132 ± 0.0034
10,UCCUGGAUCUGCUUGCAUAGUUUUUAGUUA,0.0152 ± 0.0032
11,UCCUCCUACAGCUUAGCAUAGUAUUUAGUUA,0.0108 ± 0.0023
12,UCCUCCUACAGCUUGCAUAGUAUUAUCUUA,0.0035 ± 0.0025
13,UCCACGUACAGCUUGCAUAGUAUUUACUUA,0.0289 ± 0.0035
14,UCCAGCUACAGCUUGCAUUGUAUUUAGUUA,0.0296 ± 0.0053
15,UCCUGGUACAGCUCGCAUAGUAUUUAGUUA,0.0419 ± 0.0066
16,UGGACCUACUGCUUGCAUAGUUUUUAGUUA,0.0267 ± 0.0066
17,UCCUCCUACAAGCUUGCAUAGUAUUUAGUUA,0.0524 ± 0.01
18,UCCUCCUUCAGCUUGCAAAGUAUUUAGUUA,0.0323 ± 0.0072
19,UCCUGGAUCUGGUUGCAUAGUAUUUAGUUA,0.00775 ± 0.0026
